According to article PMC4336329 (PLoS ONE, 2015):
The whole screen tested about 310,000 compounds, of which about 14,000 (4.5%) showed an effect of 50% or more. The effect is printed as a negative number. Some of the results follow.

target: human ether-à-go-go-related gene (hERG) potassium channel (human, UniProt Q12809); test: primary screen, population patch clamp on CHO cells stably expressing hERG
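Note: peak tail current of the secondary pulse compared with the same well before compound.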

Chain of human ether-à-go-go-related gene (hERG) potassium channel (Q12809 whole entry, looked up): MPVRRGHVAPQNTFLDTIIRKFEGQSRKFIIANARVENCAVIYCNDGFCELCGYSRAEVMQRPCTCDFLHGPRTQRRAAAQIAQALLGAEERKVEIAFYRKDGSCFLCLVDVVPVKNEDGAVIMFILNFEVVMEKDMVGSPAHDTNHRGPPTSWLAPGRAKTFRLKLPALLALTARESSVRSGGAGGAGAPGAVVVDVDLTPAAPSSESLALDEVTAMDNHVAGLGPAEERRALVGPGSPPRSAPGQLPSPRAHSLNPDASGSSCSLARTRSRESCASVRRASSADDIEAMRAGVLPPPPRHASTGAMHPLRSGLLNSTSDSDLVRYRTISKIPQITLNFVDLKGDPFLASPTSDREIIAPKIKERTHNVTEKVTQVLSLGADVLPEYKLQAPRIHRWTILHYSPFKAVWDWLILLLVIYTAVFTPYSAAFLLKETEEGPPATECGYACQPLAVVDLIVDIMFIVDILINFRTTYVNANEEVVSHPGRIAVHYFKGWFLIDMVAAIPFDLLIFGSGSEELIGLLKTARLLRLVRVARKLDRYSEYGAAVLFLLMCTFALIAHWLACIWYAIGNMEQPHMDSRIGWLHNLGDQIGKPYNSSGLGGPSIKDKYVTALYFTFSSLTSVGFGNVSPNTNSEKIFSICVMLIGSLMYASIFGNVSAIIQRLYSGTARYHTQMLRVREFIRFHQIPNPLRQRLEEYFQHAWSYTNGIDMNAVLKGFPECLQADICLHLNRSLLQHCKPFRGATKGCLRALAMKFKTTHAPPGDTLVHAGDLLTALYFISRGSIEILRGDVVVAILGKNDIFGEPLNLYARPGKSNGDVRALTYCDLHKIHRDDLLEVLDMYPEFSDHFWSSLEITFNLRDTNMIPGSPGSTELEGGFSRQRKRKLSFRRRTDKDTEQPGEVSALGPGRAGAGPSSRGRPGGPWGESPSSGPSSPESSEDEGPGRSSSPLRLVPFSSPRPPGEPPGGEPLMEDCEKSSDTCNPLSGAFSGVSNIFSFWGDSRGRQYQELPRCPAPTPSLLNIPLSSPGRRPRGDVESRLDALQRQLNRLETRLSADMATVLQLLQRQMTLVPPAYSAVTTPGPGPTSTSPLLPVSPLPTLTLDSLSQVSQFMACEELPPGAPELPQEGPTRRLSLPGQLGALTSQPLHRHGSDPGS

Structure (SMILES)	hERG current change (%, negative = inhibition) at 10uM [%]
C=CCn1c(Oc2ccccc2F)nc2c1c(=O)n(C)c(=O)n2C	2.59
CC(C)c1nnc(NC(=O)CSc2nc3ccccc3s2)s1	-0.703
C/C(Cn1nnc([N+](=O)[O-])n1)=N\NC(=O)c1ccncc1	13.7
O=C(COC(=O)c1c(Cl)ccc(Cl)c1Cl)NC1CCS(=O)(=O)C1 (stereo not drawn)	-17.4
CCOC(=O)C1CCCN(CC(O)COC(c2ccccc2)c2ccccc2)C1 (stereo not drawn)	-79.7
COC(=O)CSC1=C(C#N)C(c2cccc(F)c2)CC(=O)N1 (stereo not drawn)	9.97
Cc1cnc(C(=O)Nc2nc(-c3ccccc3)cs2)cn1	-5.47
CC(=N)C1=C(O)CC(c2ccccc2)CC1=O (stereo not drawn)	14.8
COc1ccc([N+](=O)[O-])cc1N1C(=O)c2cccnc2C1=O	9.49
Cl.O=C(c1ccccc1F)N1CCN(Cc2ccccc2F)CC1	12.2
Cc1noc(C)c1CSCC(=O)Nc1cc(S(=O)(=O)N2CCOCC2)ccc1OCC(F)(F)F	-33.4
CCOC(=O)c1[nH]c(C)c(/C(O)=C2\C(=O)C(=O)N(CCN(C)C)C2c2ccco2)c1C (stereo not drawn)	10.7
Cc1ccc2c(c1)c(C1=NC(=S)NC1=O)c(O)n2C	19.4
O=C(NC1(C(F)(F)F)N=C2SCCN2C1=O)c1ccccc1F (stereo not drawn)	19.8
COc1ccc(C)cc1NC(=O)C(OC(=O)C1CC1)c1ccccc1 (stereo not drawn)	-12
O=C1COc2ccc(C(=O)COC(=O)CCSc3ccccc3)cc2N1	-2.37
COc1ccc(NS(=O)(=O)c2ccc(NC(=S)NC(=O)/C=C/c3ccccc3)cc2)nn1	-3.33
CCOC(=O)CCn1nc(-c2ccc(Cl)cc2)cc1N	4.1
CCn1c(C)nc2cc(C(=O)OC(C(F)(F)C(F)F)C(F)(F)C(F)F)ccc21	-37.7
COc1ccc(/C=C/C(=O)c2ccccc2)cc1COc1ccc(F)cc1	-0.749
Cc1cc(C)c(C(=O)CC(=O)c2ccccc2Cl)c(O)c1	8.64
CCOC(=O)c1[nH]c2cc(OC)c(OC)cc2c1NC(=O)c1nonc1C	8.53
COc1ccc(CN(C(C)=O)c2cccc(C)c2C)cc1	-1.15

Structure (SMILES)	hERG current change (%, negative = inhibition) at 10uM [%]
COc1cccc(CNC(=O)CCC(=O)N2CCOCC2)c1	16.7
CCCCN(C(=O)Cn1nnc2ccccc21)C(C(=O)NCCOC)c1ccc(OC)cc1OC (stereo not drawn)	0.724
O=C(c1cccc(C(F)(F)F)c1)N1CCCCCC1	-10.2
O=[N+]([O-])c1cccnc1NCc1cccs1	12.4
CCN1CCN(Cc2c(O)ccc3c(=O)c(-c4ccc(OC)c(OC)c4)c(C)oc23)CC1	1.96
Cc1c(Br)c([N+](=O)[O-])nn1CC(=O)N(C)Cc1ccccc1	-20
O=C(COC(=O)CCc1ccc(S(=O)(=O)N2CCOCC2)cc1)NCc1ccc(Cl)cc1	-16.4
O=C(CS(=O)(=O)Cc1ccccc1)N1CCN(Cc2ccc3c(c2)OCO3)CC1	-11.6
Cc1cccc(CC2S/C(=N/N=C/c3ccco3)NC2=O)c1 (stereo not drawn)	7.05
CC1CC(C)CN(C(=O)c2ccc(NS(=O)(=O)c3ccc4[nH]c(=O)[nH]c4c3)cc2)C1 (stereo not drawn)	-25.4
Cc1ccc(-c2c3c(=O)n(C)c(=O)n(C)c3cn2-n2cnnc2)cc1	-23
COc1ccc(-c2cc(C(=O)N3CCOCC3)c3cc(C)ccc3n2)cc1	-15.5
CCOP(=O)(OCC)C(NC(=O)c1cccc(C)c1)C(Cl)(Cl)Cl (stereo not drawn)	12.3
COCc1[nH]nc2c1C(c1ccc(F)cc1F)C(C#N)=C(N)O2 (stereo not drawn)	6.13
Cc1cccc(COc2ccccc2/C=N/Nc2ccc([N+](=O)[O-])cc2)c1	-5.78
CCOC(=O)NC(Nc1ccc(S(N)(=O)=O)cc1)(C(=O)OCC)C(F)(F)F (stereo not drawn)	6.76
CC(C)n1c(/C=C/[C@H](O)C[C@H](O)CC(=O)[O-])c(-c2ccc(F)cc2)c2ccccc21.[Na+]	11.4
Cc1ccc(N(C)C(=O)C2CCCN2S(=O)(=O)c2cccc3nsnc23)cc1 (stereo not drawn)	1.28
COc1ccc(CN2CCN(C(=O)c3ccco3)CC2)cc1OCc1ccccc1	-51.2
c1ccc2c(-c3nn4nnnc4c4ccccc34)cccc2c1	-5.2
CCCCOCCCn1c(-c2ccco2)nc2nc3ccccc3nc21	-55.9
Cc1cc(=O)[nH]c(SCC(=O)c2c(N)n(C)c(=O)n(C)c2=O)n1	12.6
